Source: PubChem BioAssay AID624296 (National Center for Advancing Translational Sciences (NCATS), 2012)
About 9,900 (2.8%) of roughly 350,000 compounds were called active. Inconclusive means that the source gave no clear call. Such entries were picked first, then a sample of the others. The call rests on the fitted dose curve; in most records, active means well fitted activation curve with a large enough effect; inconclusive means small, poorly fitted or top-dose-only effect; inactive means no such curve, though single readings can be large or run the other way. Potencies of inconclusive entries are left out as doubtful fits.

test: A quantitative high throughput screen for small molecules that induce DNA re-replication in MCF 10a normal breast cells.; further: nearly all actives have a fitted effect of over 50% in size; on activity, positive = re-replication: % of control where 0% means no effect; conditions: MCF 10A DNA re-replication, Hoechst nuclear intensity, 48 h; activity, positive = re-replication: at 46.1 µM (top of the series)
Potency means the concentration at half of the fitted maximal effect; tags describe the fitted curve by direction and shape.

| SMILES | Potency | activity, positive = re-replication |
| --- | --- | --- |
| CCOC(=O)c1csc(N/N=C2\CCc3ccccc32)n1 | inconclusive [activator, partial curve, poor fit] |  |
| CCOC(=O)C1C(=O)CC(C)(O)C(C(=O)OCC)C1c1ccc(N(CC)CC)cc1 (stereo not given) |  | inactive: 19.7% |
| COc1ccc(NS(=O)(=O)c2ccc3c(c2)oc(=O)n3C)cc1Cl |  | inactive: 7.98% |
| O=C(CSc1cc(Cl)ccc1Cl)NC1CCCc2ccccc21 (stereo not given) | inconclusive [activator, single point] |  |
| COc1ccc(/C=N/Nc2nc(N3CCCC3)nc(N3CCCC3)n2)c(OC)c1OC | inconclusive [activator, single point] |  |
| Cc1onc(-c2c(Cl)cccc2Cl)c1C(=O)N1CCCc2ccccc21 |  | inactive: -4.48% |
| Cc1cccc(CNc2ncnc3ccc(-c4ccc5c(c4)OCCO5)cc23)c1 | inconclusive [activator, partial curve] |  |
| COc1ccc(C(=O)N2CCc3cc(OC)c(OC)cc3C2c2ccc(OC)c(OC)c2)cc1 (stereo not given) | inconclusive [activator, single point] |  |
| COC(=O)c1c(-c2ccc(F)cc2)noc1N | inconclusive [activator, partial curve, poor fit] |  |
| COc1ccc(-n2c(CCc3ccccc3)n[nH]c2=S)cc1 |  | inactive: -0.626% |
| CS(=O)(=O)N1CCCC(c2nc(-c3ccc(S(=O)(=O)NCc4ccccc4)cc3)no2)C1 (stereo not given) | inconclusive [activator, single point] |  |
| CCC1CCc2sc(C(=O)NCc3ccccn3)cc2C1 (stereo not given) | inconclusive [activator, partial curve, poor fit] |  |
| Cc1ccc(N2CC(C(=O)NCc3cccs3)CC2=O)cc1 (stereo not given) |  | inactive: -167% [at 0.0737 µM] |
| CC(=O)c1cccc(CN2CCC(CO)(CCOc3ccccc3)CC2)c1 | inconclusive [activator, single point] |  |
| N#Cc1c(NC(=O)CN2CCOCC2)oc(-c2ccccc2)c1-c1ccccc1 |  | inactive: 3.72% |
| COc1ccc(C(=O)On2c(-c3ccc(Br)cc3)nc3ccccc3c2=O)cc1 | active: 9.2 µM |  |
| O=C(CN1CCc2ccccc2C1)Nc1ccccc1C(F)(F)F | inconclusive [activator, single point] |  |
| CCOC(=O)C(C)Sc1nc2c(cnn2-c2ccc(C)cc2)c(=O)[nH]1 (stereo not given) | inconclusive [activator, single point] |  |
| C/C(=N\NC(=O)c1ccccc1F)c1ccccn1 | active: 23.1 µM |  |
| Cc1ccccc1-c1nc(S(=O)(=O)c2ccc(Cl)cc2)c(NCCN2CCOCC2)o1 | active: 20.6 µM |  |
